The text below walks through data of PubChem BioAssay AID1645882 (National Center for Advancing Translational Sciences (NCATS), 2021).

The campaign covered roughly 16,000 compounds. About 120 (0.75%) were called active. About 4% were inconclusive and are not listed. Calls come from the whole dose curve; as a rule, active = well fitted inhibition curve with a large enough effect; inconclusive = small, poorly fitted or top-dose-only effect; inactive = no such curve, though single readings can be large or run the other way. The list shows a part of the results.
Potency is the fitted concentration of half-maximal effect.

For this assay, the target named is Rap guanine nucleotide exchange factor 3 (Homo sapiens) (UniProt O95398). Kind of assay: Validation qHTS for antagonist of cAMP-regulated guanine nucleotide exchange factor 3 (EPAC1). Note: nearly all actives have a fitted effect of over 75% in size. The conditions noted are these: EPAC1 Rap1B-BODIPY-GDP exchange, fluorescence; activity change, negative = inhibition: at the top concentration. An excerpt: Assay Provider (PI): Xiaodong Cheng Ph.D.
Sequence of UniProt O95398 (O95398 whole entry, looked up): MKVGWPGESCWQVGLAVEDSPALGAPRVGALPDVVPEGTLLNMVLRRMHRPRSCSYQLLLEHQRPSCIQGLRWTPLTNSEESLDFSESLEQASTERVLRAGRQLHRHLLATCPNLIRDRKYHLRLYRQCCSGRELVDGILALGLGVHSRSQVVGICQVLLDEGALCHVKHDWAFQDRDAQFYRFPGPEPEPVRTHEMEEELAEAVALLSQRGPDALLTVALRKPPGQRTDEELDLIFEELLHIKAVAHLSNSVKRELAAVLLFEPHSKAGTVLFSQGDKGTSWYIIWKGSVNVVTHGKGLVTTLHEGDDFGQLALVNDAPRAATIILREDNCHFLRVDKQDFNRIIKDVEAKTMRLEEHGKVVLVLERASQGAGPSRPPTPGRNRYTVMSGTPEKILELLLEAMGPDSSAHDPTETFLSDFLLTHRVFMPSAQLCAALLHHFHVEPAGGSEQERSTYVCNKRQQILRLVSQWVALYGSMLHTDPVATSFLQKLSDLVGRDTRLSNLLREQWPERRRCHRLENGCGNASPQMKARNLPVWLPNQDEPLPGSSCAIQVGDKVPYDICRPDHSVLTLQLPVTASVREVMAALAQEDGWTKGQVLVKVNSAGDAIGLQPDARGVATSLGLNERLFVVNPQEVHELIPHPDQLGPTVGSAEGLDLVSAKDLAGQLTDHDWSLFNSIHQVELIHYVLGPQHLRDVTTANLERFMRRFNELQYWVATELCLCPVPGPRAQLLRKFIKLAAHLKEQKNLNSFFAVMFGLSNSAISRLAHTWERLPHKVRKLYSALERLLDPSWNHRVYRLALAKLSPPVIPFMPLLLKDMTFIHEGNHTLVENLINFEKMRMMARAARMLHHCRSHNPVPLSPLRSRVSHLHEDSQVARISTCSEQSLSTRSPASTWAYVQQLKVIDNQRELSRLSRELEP
The University of Texas Medical Branch, […], TX
In multi-cellular eukaryotic organisms, the effects of cAMP are transduced by two ubiquitously-expressed intracellular cAMP receptors, the classic protein kinase A/cAMP-dependent protein kinase (PKA/cAPK) and the more recently discovered exchange protein directly activated by cAMP/cAMP-regulated guanine nucleotide exchange factor (EPAC/cAMP-GEF). Both PKA and EPAC are ubiquitously expressed in all tissues, and an increase in intracellular cAMP levels will lead to the activation of both PKA and EPAC. Therefore, careful dissections of the individual role and relative contribution of EPAC and PKA within the overall cAMP signaling in various model systems are critical for further elucidating the mechanism of cAMP signaling. To date no EPAC-specific antagonists and agonist, as well as isoform-specific agonists have been reported, and developing EPAC-specific pharmacological probes to determine the physiological functions that EPAC play in the overall cAMP-mediated signaling remains a major challenge within the research field. Furthermore, identified regulators of EPAC may lead to new mechanism-based therapeutic strategies specifically targeting the EPAC / cAMP-signaling components as EPAC has been implicated to play important roles in major human pathological conditions such as diabetes, heart disease, and cancer.
This qHTS will be used to screen the Molecular Libraries Small Molecule Repository (MLSMR) as a concentration-titration series using the NCGC unique quantitative screening (qHTS) platform to find activators for EPAC1. In addition, this assay will also be used as a counterscreen for the EPAC2 qHTS. This fluorescent based assay is developed and validated for EPAC1 that measures exchange using EPAC effector Rap1 complex with BODIPY-GDP, a GDP analog with a tethered fluorophores. Activators are identified by monitoring the change in fluorescence signal as the exchanged free BODIPY-GDP has a reduced fluorescence compared to Rap1-bound BODIPY-GDP. Increase in signal (activation) is the desired outcome for the EPAC1 agonist while no activity in this assay is desired for the EPAC2 agonist counterscreen.
[1] de Rooij, J., Zwartkruis, F. J., Verheijen, M. H., Cool, R. H., Nijman, S. M., Wittinghofer, A., and Bos, J.L. (1998) Nature 396, 474-477.
Briefly, three uL of reagents (100 nM EPAC1, 250 nM RAP1B-BODIPY-GDP, 50 uM GDP) were dispensed into a 1536-well Greiner black solid-bottom medium binding assay plate. Controls and test compounds (23 nL) were transferred to the plate via a Kalypsys pin tool equipped with a 1536-pin array. The plates were centrifuged at 1,000 rpm for 15 seconds followed by 5 minute incubation at room temperature. The assay plates were read at 5 minute intervals for 30 minutes in the ViewLux plate reader using 480nm excitation and 540nm emission filters. The results were normalized to the […] positive control ATA and DMSO.
On to `CN1CC[C@@H]2CN3CCc4cccc(c43)[C@H]2C1`, for which the “activity change, negative = inhibition” value is inactive: -17.3%.

For the compound `O=C(Oc1ccccc1)N1CCC[C@@]2(CCN(Cc3ccccc3)C2)C1`, the “activity change, negative = inhibition” value is inactive: -2.81%.

Turning to `COc1cc(CC(C)N)c(OC)cc1Br` (stereo not drawn), the activity change, negative = inhibition result is “inactive”.

For the compound `C[N+](C)(C)CC(=O)[O-]`, the “activity change, negative = inhibition” value was inactive: -2.46% [at 75.8 µM].

`N#CC1(N2CCCCC2)CCCCC1`: the “activity change, negative = inhibition” value was inactive: 10%.

With `CNC1[C@@H](O)C(OC2C(N)C[C@H](N)[C@@H](O[C@@H]3OC(C(C)O)C(O)C(O)C3N)C2O)OC[C@]1(C)O` (stereo partly drawn), the “activity change, negative = inhibition” value was inactive: 5.43%.

With `C[N+]1(C)C2CCC1CC(OC(=O)C(CO)c1ccccc1)C2` (stereo not drawn), the activity change, negative = inhibition result was “inactive”.

With `CC1CCC(C(C)C)C(OC(=O)c2ccccc2N)C1` (stereo not drawn), the “activity change, negative = inhibition” value is inactive: -9.58%.

As to `CCCN(CCC)C1Cc2cc(OC)c(OC)cc2C1`, the activity change, negative = inhibition result was “inactive”.

In the case of `C[C@H]1[C@H]2Cc3ccc(O)cc3[C@]1(C)CCN2CCc1ccccc1`, the “activity change, negative = inhibition” value is inactive: 27.1% [at 320 µM].

With `O=c1c2ccccc2[se]n1-c1ccccc1`, the activity change, negative = inhibition result is “inactive”.

In the case of `c1ccc2c(c1)Nc1ccccc1S2`, the activity change, negative = inhibition result is “inactive”.

For `O=C(O)c1nn(Cc2ccc(Cl)c(Cl)c2)c2ccccc12`, the “activity change, negative = inhibition” value was inactive: 9.95%.

With `C[C@]12CC[C@H]3[C@@H](CC=C4C[C@@H](O)CC[C@@]43C)[C@@H]1CC[C@@H]2O`, the “activity change, negative = inhibition” value is inactive: -5.16%.

Take `CC(C)(C)C(O)C(Oc1ccc(Cl)cc1)n1cncn1` (stereo not drawn): the “activity change, negative = inhibition” value was inactive: 41.3% [at 320 µM].

Regarding `C=C(C)[C@H]1C2C(=O)O[C@H]1[C@H]1OC(=O)[C@@]34O[C@@H]3C[C@]2(O)[C@@]14C`, the activity change, negative = inhibition result is “inactive”.

On to `CN(C)CCc1c[nH]c2cccc(O)c12`, for which the “activity change, negative = inhibition” value was inactive: 41% [at 320 µM].

With `N#Cc1ccc(CN2CCCC3(CCN(C(=O)Oc4ccccc4)CC3)C2)cc1`, the “activity change, negative = inhibition” value was inactive: -4.06%.

Take `O=c1ccc2cc(O[C@@H]3O[C@H](CO)[C@@H](O)[C@H](O)[C@H]3O)c(O)cc2o1`: the “activity change, negative = inhibition” value is inactive: 13.9% [at 75.8 µM].

`COc1cc2c(cc1O)C[C@H]1c3c(cc(OC)c(O)c3-2)CCN1C`: the “activity change, negative = inhibition” value is inactive: -2.92%.

In the case of `CC(C)NC(C)Cc1ccc(I)cc1` (stereo not drawn), the activity change, negative = inhibition result is “inactive”.

Turning to `O=C(Oc1ccccc1)N1CCC2(CCN(Cc3ccccc3)CC2)CC1`, the “activity change, negative = inhibition” value is inactive: 26.2%.

With `CC(C)=CCCC1(C)C=Cc2c(O)c3c(c(CC=C(C)C)c2O1)OC12C(=CC4CC1C(C)(C)OC2(C/C=C(/C)C(=O)O)C4=O)C3=O` (stereo not drawn), the Potency was active: 50.1 µM.

In the case of `O=C1c2ccccc2-c2cccc3cccc1c23`, the “activity change, negative = inhibition” value is inactive: 15.5%.

On to `CSCC[C@H](NC(=O)[C@H](Cc1ccccc1)NC(=O)CNC(=O)CNC(=O)[C@@H](N)Cc1ccc(O)cc1)C(=O)O`, for which the activity change, negative = inhibition is inactive: -4.49% [at 15.3 µM].

Regarding `CNCC/C=C/c1cccnc1`, the “activity change, negative = inhibition” value is inactive: -2.41%.

With `C[C@](O)(CS(=O)(=O)c1ccc(F)cc1)C(=O)Nc1ccc(C#N)c(C(F)(F)F)c1`, the “activity change, negative = inhibition” value is inactive: 23%.

For `COC(=O)N1CCN(C(=O)Cc2ccc(Cl)c(Cl)c2)C(CN2CCCC2)C1` (stereo not drawn), the activity change, negative = inhibition result is “inactive”.

As for `NCC(O)c1ccc(O)cc1` (stereo not drawn), the activity change, negative = inhibition entry was “inactive”.

In the case of `COc1ccc2[nH]cc(CCN(C)C)c2c1`, the “activity change, negative = inhibition” value was inactive: 25.3%.

As to `CC1C(=O)OC2C1CC[C@@]1(C)C=CC(=O)[C@@]3(C)O[C@@]213` (stereo partly drawn), the “activity change, negative = inhibition” value is inactive: 8.54%.

Turning to `Cc1nnc2n1-c1sc(Br)cc1C(c1ccccc1Cl)=NC2`, the “activity change, negative = inhibition” value was inactive: 39.5%.

Turning to `N#Cc1nn(-c2c(Cl)cc(C(F)(F)F)cc2Cl)c(N)c1S(=O)C(F)(F)F` (stereo not drawn), the activity change, negative = inhibition entry is “inactive”.

As to `COc1cc2c(cc1O)CCNC2C` (stereo not drawn), the “activity change, negative = inhibition” value is inactive: 10.6%.

As for `CC1=C(O)C(=O)[C@@H]2O[C@@H]2C1=O`, the “activity change, negative = inhibition” value is inactive: 19.9%.

Consider `C[N+]1([O-])[C@@H]2CC(OC(=O)[C@H](CO)c3ccccc3)C[C@H]1[C@@H]1O[C@@H]12` (stereo partly drawn), for which the activity change, negative = inhibition entry was “inactive”.

Turning to `NC(CCCCCP(=O)(O)O)C(=O)O` (stereo not drawn), the “activity change, negative = inhibition” value is inactive: -4.64% [at 75.8 µM].

As for `CCCCCCCCOC(=O)c1ccccc1C(=O)OCCCCCCCC`, the “activity change, negative = inhibition” value was inactive: 28.9%.

Consider `O=C(Oc1ccccc1)N1CCC2(CC1)CN(C(c1ccccc1)c1ccccc1)C2`, for which the “activity change, negative = inhibition” value was inactive: -20.6%.

On to `CNC1C2CN3CCC(O2)C13` (stereo not drawn), for which the “activity change, negative = inhibition” value is inactive: 12.6%.

As for `O=C1Nc2cc(Cl)c(Cl)cc2N2CCNC[C@H]12`, the “activity change, negative = inhibition” value is inactive: -1.08%.

In the case of `COc1c2c(cc3c1OCO3)CCN(C)C2`, the “activity change, negative = inhibition” value is inactive: -1.6% [at 75.8 µM].

`CC1(C)[C@H](C=C(Cl)Cl)[C@H]1C(=O)OCc1c(F)c(F)cc(F)c1F`: the “activity change, negative = inhibition” value is inactive: 2.06%.

Turning to `N[C@H](Cc1o[nH]c(=O)c1Cl)C(=O)O`, the “activity change, negative = inhibition” value was inactive: 9.26%.

For `CN1CCc2cccc(Cl)c2CC1`, the “activity change, negative = inhibition” value is inactive: 14.8% [at 75.8 µM].

Consider `C[C@]12CC[C@@H]3c4ccc(OC(=O)N(CCCl)CCCl)cc4CC[C@H]3[C@@H]1CC[C@@H]2OP(=O)(O)O`, for which the activity change, negative = inhibition result is “inactive”.

For the compound `CC(C)CN1CC[C@@]2(CCCN(C(=O)c3ccncc3)C2)C1`, the “activity change, negative = inhibition” value was inactive: 27.5%.

Turning to `Nc1ccc(Cl)cc1`, the “activity change, negative = inhibition” value was inactive: -4.67% [at 320 µM].

As for `CC(C)CN1CCCC2(CCN(C(=O)c3ccncc3)CC2)C1`, the “activity change, negative = inhibition” value is inactive: 10.1%.

For `CN[C@@H](C)[C@H](O)c1ccccc1`, the “activity change, negative = inhibition” value is inactive: 53.3%.

Turning to `O=C1/C(=C/c2ccc(N(CCCl)CCCl)cc2)Cc2ccccc21`, the “activity change, negative = inhibition” value was inactive: 25.5%.

In the case of `C=CCN1CC[C@]23CCCCC2[C@H]1Cc1ccc(O)cc13` (stereo partly drawn), the “activity change, negative = inhibition” value is inactive: 3.27% [at 75.8 µM].

Turning to `CC[C@]1(O)CC[C@H]2[C@@H]3CCC4=CCCC[C@@H]4[C@H]3CC[C@@]21C`, the “activity change, negative = inhibition” value was inactive: 5.98%.

As for `S=C=Nc1cccc(C2(N3CCCCC3)CCCCC2)c1`, the “activity change, negative = inhibition” value is inactive: 15.4%.

For the compound `CNC(=O)CSP(=S)(OC)OC`, the “activity change, negative = inhibition” value was inactive: 16.7%.

With `CCNc1nc(Cl)nc(NC(C)C)n1`, the “activity change, negative = inhibition” value is inactive: -5.08%.

As for `COC(=O)[C@@H](N)CCCN/C(N)=N/[N+](=O)[O-]`, the “activity change, negative = inhibition” value is inactive: 12.5%.

As to `O=C1C=CC[C@@H]2[C@H]3CCCN4CCC[C@@H](CN12)[C@@H]34`, the “activity change, negative = inhibition” value was inactive: 20%.

`CC12NC(Cc3ccccc31)c1ccccc12` (stereo not drawn): the “activity change, negative = inhibition” value was inactive: 18.1% [at 75.8 µM].

`CC(C)(C#N)O[C@H]1OC(CO)C(O)C(O)C1O` (stereo partly drawn): the “activity change, negative = inhibition” value was inactive: 9.05%.

`O=Cc1ccco1`: the “activity change, negative = inhibition” value is inactive: 0.479%.

As to `CN1CC[C@@]2(c3cccc(O)c3)Cc3nc4ccccc4cc3C[C@H]2C1`, the “activity change, negative = inhibition” value was inactive: 8.08%.

With `C[C@]12C[C@H]3S[C@H]3C[C@@H]1CC[C@@H]1[C@@H]2CC[C@]2(C)[C@@H](O)CC[C@@H]12`, the “activity change, negative = inhibition” value was inactive: 15.8% [at 75.8 µM].

With `CNC(C)Cc1ccccc1` (stereo not drawn), the “activity change, negative = inhibition” value is inactive: 26.3% [at 320 µM].

With `COP(=O)(OC)C(O)C(Cl)(Cl)Cl` (stereo not drawn), the “activity change, negative = inhibition” value is inactive: -0.208%.

Consider `CCCC(C)C1(CC)C(=O)NC(=O)NC1=O` (stereo not drawn), for which the “activity change, negative = inhibition” value is inactive: 14.6%.

Regarding `C=CCc1ccc2c(c1)OCO2`, the “activity change, negative = inhibition” value was inactive: 1.77%.

Turning to `Oc1cc2c(cc1O)[C@H]1c3ccccc3CN[C@H]1CC2`, the activity change, negative = inhibition result was “inactive”.

On to `COc1cc2c(cc1OC)[C@@H]1C(=O)c3ccc(O)c(CC=C(C)C)c3OC1CO2` (stereo partly drawn), for which the “activity change, negative = inhibition” value was inactive: 5.37%.

On to `Fc1ccc(C(OCCN2CCN(C/C=C\c3ccccc3)CC2)c2ccc(F)cc2)cc1`, for which the “activity change, negative = inhibition” value was inactive: -27.7%.

Turning to `CC1(C)C(=O)C=C[C@@]2(C)C1CC(O)[C@]1(C)C2CC[C@@]2(C)C(c3ccoc3)OC(=O)C3O[C@]312` (stereo partly drawn), the “activity change, negative = inhibition” value is inactive: -19.8%.

Consider `C=CCN1CC[C@]23c4c5ccc(O)c4O[C@H]2C(=O)CC[C@@]3(O)[C@H]1C5`, for which the activity change, negative = inhibition result was “inactive”.

Consider `CCCOC(=O)c1cc2c(cn1)[nH]c1ccccc12`, for which the “activity change, negative = inhibition” value is inactive: -20.7%.
